# Data published in the supplement of paper PMC10126150.
# Values marked as one replicate rest on one cluster of the flow cell; about a third of the high ones do not repeat.
# Tested on: ATP
# Test: switch fluorescence ratio, 500 uM ATP over buffer (Cy3 cluster intensity, sum of 5 cycles each) (fold (ratio)); higher = stronger signal-on switching upon ATP binding; sequences stand for … in TCGTCGGCAGCGTCAGATGTGTATAAGAGACAGTTTTTTTTTTTTTTTTTTTTTTTTT…TC
# Conditions: aptamer strand: ATP DNA aptamer (quencher-CACCTGGGGGAGTATTGCGGAGGAAGG + anchor), 100 nM annealed; ATP concentration: 500 uM; one replicate
# In short: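 After annealing to 100 nM quencher-labelled ATP aptamer, Cy3-labelled switching-strand clusters on a modified Illumina MiSeq flow-cell were imaged in selection buffer. A second image followed after 15 min with 500 uM ATP at 22 °C, and five such buffer/ATP cycles were done, each separated by NaOH stripping and re-annealing. The fluorescence ratio, averaged per switch-domain sequence, is summed target-cycle over summed buffer-cycle Cy3 intensity per cluster, with clusters outside 100-1000 RFU excluded.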
# 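Further: ATP exposure 15 min at 22 °C before imaging.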
row,Sequence,switch fluorescence ratio
1,CACCAGAAGA,1.07
2,CACCATAGAC,1.23
3,CACCCGTTCC,1.47
4,CACCCTTATC,1.11
5,CACCCTTCGC,2.4
6,CACCGCCCGT,1.23
7,CACCGCGATC,2.73
8,CACCGGAGCA,4
9,CACCGTTATA,1.56
10,CACCTAATTG,1.02
11,CACCTAGTCT,1.06
12,CACCTGCCAC,1.37
13,CACCTGGAGA,1.06
14,CACCTTATGC,1.05
15,CACCTTCTAT,1.13
16,CACCTTGGTC,0.971
17,CACCTTTGCC,1.08
18,CACCTTTTCC,1.28
19,CACGAATCTG,0.999
20,CACGACCCAT,1.17
21,CACGACGCGC,4.18
22,CACGACTCCC,1.15
23,CACGACTGTT,0.973
24,CACGATACCG,1.19
25,CACGCCATTT,1.13
26,CACGCGAGTT,1.04

row,Sequence,switch fluorescence ratio
1,CACGGAAGGG,1.03
2,CACGGAGGAT,1.01
3,CACGGCACGG,1.28
4,CACGGCCAT,1.04
5,CACGGCCTAA,0.979
6,CACGGCTATT,0.974
7,CACGGGAATG,1
8,CACGGGACAT,1.2
9,CACGGGCGCT,1.03
10,CACGGTGATG,0.954
11,CACGTAACCG,1.1
12,CACGTCTGAG,1.04
13,CACGTGCCGT,1.06
14,CACGTGGGTT,1.03
15,CACGTGTAGA,1.04
16,CACGTTCTAC,1.15
17,CACTAAACGA,1.11
18,CACTAGGACT,1.03
19,CACTAGTGCC,1.02
20,CACTAGTGT,0.991
21,CACTATATCT,1.12
22,CACTATCTCT,0.988
23,CACTATTAT,1.03
24,CACTCAAGCC,1.15
25,CACTCAGGAT,1.04
26,CACTCGCACG,1.28

row,Sequence,switch fluorescence ratio
1,CACTCGGCAT,3.07
2,CACTCTAACC,1.1
3,CACTCTGAGA,1
4,CACTGAGGGC,0.975
5,CACTGGCTCT,1.01
6,CACTGGTAGA,1.06
7,CACTGTAGTT,1.19
8,CACTGTCTAA,1.02
9,CACTGTGAGC,1.06
10,CACTTACGCG,1
11,CACTTAGCTA,1.06
12,CACTTATTAA,1.04
13,CACTTGAGGC,0.943
14,CAGAAACATA,1.03
15,CAGAACTTGA,0.875
16,CAGAAGAGGC,1.06
17,CAGAAGGCGA,1.19
18,CAGAATACTT,1.01
19,CAGACAAGGT,1.03
20,CAGACGTTCT,1.04
21,CAGACTGCTT,0.963
22,CAGACTGT,0.987
23,CAGAGCCAT,1.07
24,CAGAGGAGCG,0.964
25,CAGAGGATT,0.969
26,CAGAGGCTG,1.07

row,Sequence,switch fluorescence ratio
1,CAGAGGGACG,1.12
2,CAGAGTGCGT,1
3,CAGAGTTCCG,0.904
4,CAGATAGGGA,0.982
5,CAGATAGTAA,1.03
6,CAGATCATGT,0.969
7,CAGATCGGTA,1.05
8,CAGATGCATC,1.04
9,CAGATTAGAC,1.04
10,CAGATTAGCG,0.955
11,CAGATTCGGC,0.99
12,CAGATTTTG,1.02
13,CAGATTTTGT,1.01
14,CAGCAAACA,1.32
15,CAGCAAACTT,1.69
16,CAGCAAAT,1.02
17,CAGCCAGTTA,1.01
18,CAGCCCAGTC,1.05
19,CAGCCTAGTC,1.07
20,CAGCGATGCG,1.16
21,CAGCGCCCGT,0.963
22,CAGCGCTGGT,0.957
23,CAGCGGCCGT,1.02
24,CAGCTGGGTG,1.29
25,CAGCTTACCC,1.26
26,CAGCTTACGA,1.56

row,Sequence,switch fluorescence ratio
1,CAGCTTTGCA,0.956
2,CAGGAACGTG,0.997
3,CAGGAAGAGC,1.03
4,CAGGAATCTT,0.975
5,CAGGACTTGG,1
6,CAGGAGATAT,0.968
7,CAGGAGGTCA,0.96
8,CAGGAGGTGT,1.06
9,CAGGATAGAC,0.992
10,CAGGATCTGA,0.977
11,CAGGATTACT,0.997
12,CAGGATTGAA,0.989
13,CAGGCAGTGC,1.09
14,CAGGCATCTG,1.03
15,CAGGCCATGA,1.09
16,CAGGCCGGCC,1.04
17,CAGGCGAGTC,0.997
18,CAGGCGATCC,1.15
19,CAGGCTATAG,0.971
20,CAGGCTCGCC,0.984
21,CAGGCTCGTA,1.04
22,CAGGGAAATT,0.978
23,CAGGGAAGGA,1.03
24,CAGGGAGTAA,1.26
25,CAGGGAGTTG,0.991
26,CAGGGATCCT,1.12

row,Sequence,switch fluorescence ratio
1,CAGGGCCGCA,1.08
2,CAGGGCCGTT,0.979
3,CAGGGCTAGA,1.04
4,CAGGGCTTTT,1.03
5,CAGGGGTGAC,1.01
6,CAGGGTCCGA,0.99
7,CAGGTAGAGG,1.04
8,CAGGTATTAT,0.997
9,CAGGTCAATC,1.2
10,CAGGTGGAAA,1.04
11,CAGGTTGCGA,1.01
12,CAGGTTTCAA,0.992
13,CAGTACTCAA,1.09
14,CAGTAGATTG,0.999
15,CAGTAGGCG,0.99
16,CAGTATCCGT,1.02
17,CAGTATGGC,1.03
18,CAGTCAGATA,0.991
19,CAGTCCGGTA,1.03
20,CAGTCCGTT,1
21,CAGTCGCCGG,0.996
22,CAGTCGTTGG,1.05
23,CAGTCTCAAT,1.02
